Reference: PubChem BioAssay AID686979 (National Center for Advancing Translational Sciences (NCATS), 2013)
Out of some 420,000 compounds screened, about 50,000 (12%) were called active. This list was built around the results that the source calls inconclusive (neither active nor inactive); the mix of calls is not that of the screen. The call rests on the fitted dose curve; in most records, active means well fitted inhibition curve with a large enough effect; inconclusive means small, poorly fitted or top-dose-only effect; inactive means flat fitted curve, though single readings scatter. Potencies of inconclusive entries are left out as doubtful fits.

Assay: qHTS for Inhibitors of human tyrosyl-DNA phosphodiesterase 1 (TDP1): qHTS in cells in presence of CPT; further: nearly all actives have a fitted effect of over 55% in size
Conditions: chicken DT40 Tdp1-/-;hTDP1 cells + 20 nM CPT, ATP luminescence, 48 h; activity change, negative = growth inhibition: at 46.2 µM (top of the series) unless noted
In short: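 Chicken DT40 Tdp1-/- cells complemented with human TDP1, 400 cells/well, exposed to compounds plus 20 nM camptothecin for at least 48 h at 37 C; viability read as ATP content by CellTiter-Glo luminescence.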
On the % scale 0 is the no-effect control and ±100 the full control effect; potency means the concentration at half of the fitted maximal effect; tags describe the fitted curve by direction and shape.

Compound | Potency | activity change, negative = growth inhibition
O=[N+]([O-])c1cccnc1NCc1cccs1 | inactive | –
O=C1CCN(Cc2ccc(O)cc2)CCN1[C@H](CO)Cc1ccccc1 | inconclusive [inhibitor, single point] | –
Cc1cc(=O)oc2cc(OCC(=O)NC3(C#N)CCCCC3)ccc12 | inactive | –
CN(CC(=O)Nc1ccc(S(=O)(=O)N2CCCC2)cc1)Cc1ccc(Cl)cc1 | active: 16.4 µM | –
O=C(c1ccc(F)cc1)C1CCN(Cc2cn[nH]c2-c2ccccc2)CC1 | inactive | –
CCOC(=O)c1cc(C(=O)OCC)cc(-n2cc(O)c(C(=O)OCC)n2)c1 | inconclusive [inhibitor, partial curve, poor fit] | –
CNc1ccncc1S(=O)(=O)NC | inactive | –
CCN1CCN(CCC(=O)Nc2ccccc2C)CC1 | inconclusive [inhibitor, single point] | –
COc1ccc(/C=C/C(=O)OCC(=O)N2c3ccccc3CC2C)c(OC)c1 (stereo not drawn) | inconclusive [inhibitor, single point] | –
Cn1c(SCc2ccccc2C#N)nc2ccccc2c1=O | inactive | –
COCCCN1C(=O)c2ccc(C(=O)OCC(=O)N(CCC#N)c3cc(C)cc(C)c3)cc2C1=O | inactive | –
Cc1cccc(C(=O)N(Cc2cccs2)C2CCS(=O)(=O)C2)c1 (stereo not drawn) | inactive | –
O=[N+]([O-])c1ccc(Oc2cc(NC3CCCCCCC3)c([N+](=O)[O-])cc2[N+](=O)[O-])cc1 | – | inconclusive: -35% [inhibitor]
CC(=O)c1cccc(NC(=O)COc2cc3oc(=O)c(CC(C)O)c(C)c3cc2Cl)c1 (stereo not drawn) | inconclusive [inhibitor, partial curve] | –
O=C(NC1(C(F)(F)F)C(=O)Nc2c1c(=O)[nH]c(=O)n2-c1ccc(Cl)cc1)c1ccccc1F (stereo not drawn) | inactive | –
Cc1ccc(CN(Cc2ccco2)C(=S)NCC(=O)O)cc1 | inactive | –
Cc1cccc(N2CCN(C(=O)N3CCCCC3)CC2)c1C | inactive | –
CC(C)c1ccc(NC(=O)C2(C)Cc3c(-c4cccc(C(N)=O)c4)ccnc3O2)cc1 (stereo not drawn) | inconclusive [inhibitor, single point] | –
Cn1c(NCc2cccnc2)nc2cc(-c3cccc(C(=O)NCCO)c3)sc2c1=O | active: 9.2 µM | –
Cc1ccc(C(=O)CSc2nnc(-c3ccco3)n2C)cc1 | inconclusive [inhibitor, single point] | –
NS(=O)(=O)c1ccc(CNC(=O)CC23CC4CC(CC(C4)C2)C3)cc1 | inconclusive [inhibitor, single point] | –
O=C(OCc1cc(=O)n2nc(C3CCCCC3)sc2n1)c1ccc(F)cc1 | inactive | –
CCOc1ccc(NC(=O)CC2C(=O)N(c3ccc(Cl)cc3)C(=O)N2Cc2cccs2)cc1 (stereo not drawn) | inconclusive [inhibitor, single point] | –
COc1ccc(CC(=O)OC(C)C(=O)NC2CCCCC2C)cc1 (stereo not drawn) | inactive | –

Compound | Potency | activity change, negative = growth inhibition
CC1=C(C(=O)N2CCOCC2)CC(CC(=O)NCCCN(C)C)C(=O)N1CCCN1CCCC1=O (stereo not drawn) | inactive | –
CCOc1ccc(Cl)cc1-c1cc(C(=O)NCCOC)[nH]n1 | inconclusive [inhibitor, partial curve, poor fit] | –
COc1cc(C(=S)NC2CCCCC2)ccc1O | inactive | –
CCOC(=O)c1ccc(NC(=O)CSc2ncccn2)cc1 | inactive | –
CC(NCC(=O)Nc1ccccc1C(=O)NC1CC1)c1ccccc1Cl (stereo not drawn) | inactive | –
CN(CC(=O)Nc1ccccc1C(F)(F)F)C(=O)CSCc1ccc(Cl)c(Cl)c1 | inconclusive [inhibitor, single point] | –
Cc1cccc(Cn2nc(-n3cccc3)c3c(C)cc(C)nc32)c1 | inconclusive [inhibitor, single point] | –
COc1cccc(NC(=O)c2ccc(-c3nc(COc4ccccc4)c(C)o3)cc2)c1 | inconclusive [inhibitor, full curve] | –
CC(=O)c1ccc(OCCOc2ccc(C#N)cc2)cc1 | inconclusive [inhibitor, single point] | –
CCc1ccccc1Nc1nn2c(=O)c3ccc(C(=O)NCCCOC(C)C)cc3nc2s1 | inconclusive [inhibitor, partial curve] | –
O=C(Nc1ccc2oc(-c3ccncc3)nc2c1)c1ccccc1Cl | inconclusive [inhibitor, single point] | –
O=C(c1ccc(F)cc1)N1C2CCC1CC(O)(c1ccc(F)cc1)C2 (stereo not drawn) | inactive | –
CN(Cc1ccc(Cl)cc1)C(=O)c1ccc(S(=O)(=O)NCc2ccco2)cc1 | inconclusive [inhibitor, single point] | –
O=C(NCc1ccccc1)c1onc(CSc2ccncc2)c1C(=O)NCc1ccccc1 | inconclusive [inhibitor, partial curve] | –
Oc1ccccc1CNc1cccc2cccnc12 | inconclusive [inhibitor, partial curve] | –
COc1ccc(C(=O)NC(=S)Nc2ccc(CN3CCOCC3)cc2)cc1Cl | active: 18.4 µM | –
CCCN1CNc2c(c(=O)[nH]c(=S)n2CCc2ccc3c(c2)OCCO3)C1 | inconclusive [inhibitor, full curve] | –
O=C(Nc1cccc(Cl)c1)c1ccc2c(c1)CCN2S(=O)(=O)c1ccccc1 | active: 13 µM | –
COc1ccc(-c2noc(-c3cccnc3N3CCN(c4ccc(OC)cc4)CC3)n2)cc1 | active: 14.6 µM | –
CCOC(=O)[C@]12CCCC=C1N(Cc1ccco1)C(=O)[C@H](CC(=O)NCCc1ccccc1OC)C2 | inconclusive [inhibitor, single point] | –
Cc1nc2ccc(C(=O)N3c4ccccc4N=C(c4ccc5c(c4)OCO5)C3C(=O)NCc3ccccc3)cc2[nH]1 (stereo not drawn) | active: 2.06 µM | –
Cc1ccc(OCCn2ncc3ccccc3c2=O)c(C)c1 | inconclusive [inhibitor, single point] | –
Cc1ccccc1-n1c(SCC(=O)c2c(N)n(C)c(=O)n(C)c2=O)nnc1-c1cccnc1 | inactive | –
N#C/C(=C/c1ccco1)c1nc2ccccc2s1 | inactive | –
